Assay results published in the supplement of paper PMC7826260.
The list shows a part of the results. Cleavage of a single-stranded DNA pool by Rep nickase domains was read by sequencing (3 µM enzyme, 1 h, 37 °C); shown is the middle of each 90-letter strand. Values are log2 of uncut reads against the no-enzyme pool; the lower, the more was cut; hits are not called. The scaling is to total reads, so uncut sequences can rise above 0 when many others are cut.

How the values were obtained:
Test in all cases: uncleaved DNA left, log2 of reads against the no-enzyme library (log2 ratio); higher = less cleavage (more negative = more Rep cleavage of the k-mer); sequences stand for … in CTCGTCCG…ACCGGAGA
[1] = test system: T1, Rep nickase domain of Muscovy duck circovirus
T1 sequence (residues 1-111 of Rep, tag left off): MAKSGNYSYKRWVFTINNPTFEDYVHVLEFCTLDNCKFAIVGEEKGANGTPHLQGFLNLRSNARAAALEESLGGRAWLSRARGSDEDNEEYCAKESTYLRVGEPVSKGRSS
Protocol: (§1)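 A pool of 90-nt single-stranded DNAs with seven random bases just before the constant AC of the nick site (name = the seven bases) was cut by 3 µM recombinant His6-SUMO-tagged Rep nickase domain (300 nM DNA, 50 mM HEPES pH 8.0, 50 mM NaCl, 1 mM MnCl2, 1 h, 37 °C, three replicates). Uncut DNA was amplified and sequenced.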

[2] = test system: T2, Rep nickase domain of banana bunchy top virus
T2 sequence (residues 1-94 of Rep, tag left off): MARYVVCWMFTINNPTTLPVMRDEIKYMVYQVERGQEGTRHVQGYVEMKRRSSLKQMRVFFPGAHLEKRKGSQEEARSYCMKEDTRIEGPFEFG
Protocol: as §1

[3] = test system: T3, Rep nickase domain of cabbage leaf curl virus
T3 sequence (residues 1-116 of Rep, tag left off): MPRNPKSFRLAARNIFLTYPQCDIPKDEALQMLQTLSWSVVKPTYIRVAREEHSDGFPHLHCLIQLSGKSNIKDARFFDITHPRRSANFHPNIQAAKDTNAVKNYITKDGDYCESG
Protocol: as §1

[4] = test system: T4, Rep nickase domain of chickpea chlorotic dwarf virus
T4 sequence (residues 1-124 of Rep, tag left off): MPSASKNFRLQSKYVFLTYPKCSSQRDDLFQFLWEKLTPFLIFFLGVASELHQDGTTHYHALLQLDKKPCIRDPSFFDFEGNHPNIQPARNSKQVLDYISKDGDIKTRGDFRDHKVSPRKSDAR
Protocol: as §1

[5] = test system: T5, Rep nickase domain of faba bean necrotic yellows virus
T5 sequence (residues 1-98 of Rep, tag left off): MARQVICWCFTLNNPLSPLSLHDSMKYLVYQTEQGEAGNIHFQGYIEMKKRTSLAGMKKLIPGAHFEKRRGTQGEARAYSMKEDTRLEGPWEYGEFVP
Protocol: as §1

[6] = test system: T6, Rep nickase domain of maize striate mosaic virus
T6 sequence (residues 1-117 of Rep, tag left off): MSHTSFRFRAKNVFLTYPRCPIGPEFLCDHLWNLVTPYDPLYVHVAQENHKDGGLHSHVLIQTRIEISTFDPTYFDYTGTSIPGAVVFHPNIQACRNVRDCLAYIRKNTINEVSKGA
Protocol: as §1

[7] = test system: T7, Rep nickase domain of porcine circovirus 2
T7 sequence (residues 2-116 of Rep, tag left off): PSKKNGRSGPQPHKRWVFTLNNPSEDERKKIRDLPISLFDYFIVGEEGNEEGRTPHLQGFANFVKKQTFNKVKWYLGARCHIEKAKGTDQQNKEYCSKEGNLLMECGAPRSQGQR
Protocol: as §1

[8] = test system: T8, Rep nickase domain of tomato golden mosaic virus
T8 sequence (residues 1-124 of Rep, tag left off): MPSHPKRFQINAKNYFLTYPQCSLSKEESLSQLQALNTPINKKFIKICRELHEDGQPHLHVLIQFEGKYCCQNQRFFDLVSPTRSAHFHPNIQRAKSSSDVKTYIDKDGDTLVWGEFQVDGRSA
Protocol: as §1

[9] = test system: T9, Rep nickase domain of tomato yellow leaf curl virus
T9 sequence (residues 1-136 of Rep, tag left off): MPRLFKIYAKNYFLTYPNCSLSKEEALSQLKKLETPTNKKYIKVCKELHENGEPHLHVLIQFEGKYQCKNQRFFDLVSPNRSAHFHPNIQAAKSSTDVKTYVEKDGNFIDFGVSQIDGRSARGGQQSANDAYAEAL
Protocol: as §1

[10] = test system: T10, Rep nickase domain of wheat dwarf virus
T10 sequence (residues 1-137 of Rep, tag left off): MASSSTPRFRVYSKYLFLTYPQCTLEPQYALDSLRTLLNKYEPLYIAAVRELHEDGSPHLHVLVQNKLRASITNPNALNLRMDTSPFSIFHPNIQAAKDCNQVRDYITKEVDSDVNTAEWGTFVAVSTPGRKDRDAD
Protocol: as §1

Sequence | uncleaved DNA left (log2) [1] | uncleaved DNA left (log2) [2] | uncleaved DNA left (log2) [3] | uncleaved DNA left (log2) [4] | uncleaved DNA left (log2) [5] | uncleaved DNA left (log2) [6] | uncleaved DNA left (log2) [7] | uncleaved DNA left (log2) [8] | uncleaved DNA left (log2) [9] | uncleaved DNA left (log2) [10]
TTGCAGG | 0.219 | 0.0995 | -0.174 | -0.139 | 0.112 | -0.584 | 0.196 | 0.19 | 0.0289 | -0.0519
CCGATTG | 0.0443 | -0.105 | -0.0271 | 0.621 | -0.0508 | 1.14 | -0.0621 | -0.0759 | -0.193 | -0.105
GTTAGTC | 0.0273 | 0.0619 | 0.367 | 0.852 | -0.00235 | 1.3 | 0.158 | 0.151 | -0.00354 | 0.153
TCCTTTG | -0.036 | 0.0306 | -0.393 | -0.733 | 0.0985 | -1.14 | 0.158 | -0.0269 | 0.0806 | 0.0223
TCCCGAT | 0.0657 | -0.0129 | 0.162 | 0.245 | 0.00844 | 0.533 | 0.0059 | 0.00736 | -0.0572 | 0.0503
GCGCATG | -0.0219 | -0.073 | -0.0952 | 0.311 | -0.0521 | 0.949 | 0.0672 | -0.0324 | -0.0892 | -0.0873
AGGCTAT | -0.115 | 0.0178 | 0.25 | 0.817 | -0.11 | 1.24 | -0.0155 | 0.00381 | -0.111 | 0.0573
GCTGTCT | 0.0922 | -0.045 | 0.0603 | -0.471 | -0.0481 | 0.411 | -0.108 | 0.0079 | -0.128 | -0.0611
AGAACGT | 0.0521 | 0.0639 | 0.135 | 0.328 | -0.0162 | -0.229 | 0.141 | 0.0575 | 0.133 | 0.132
TGTGGTT | 0.0575 | -0.0251 | 0.245 | -0.314 | -0.0197 | 0.863 | -0.168 | -0.0671 | -0.0175 | -0.126
GTTTAAC | 0.0568 | 0.142 | 0.335 | 0.684 | 0.0119 | 1.71 | 0.0688 | 0.123 | 0.0829 | 0.067
TTAACCC | -0.379 | -0.0901 | -0.0655 | -1.76 | -0.117 | -0.302 | -1.21 | -0.177 | -0.0101 | -0.0347
CTATGAT | -0.466 | 0.0238 | -0.479 | -0.0617 | 0.0315 | 0.745 | -1.2 | 0.052 | 0.00634 | 0.0859
GTGTCAA | -0.011 | 0.12 | 0.294 | 1.02 | 0.0106 | 1.88 | 0.16 | 0.102 | 0.1 | 0.139
GACTGAG | 0.026 | -0.0935 | -0.342 | -0.287 | -0.0523 | -0.898 | 0.0955 | -0.0601 | 0.00701 | -0.142
ACAAGGA | -0.0285 | -0.00849 | 0.0605 | 0.274 | 0.0426 | -0.824 | 0.0635 | 0.0215 | -0.133 | -0.0527
TGGACGC | 0.0255 | 0.117 | 0.772 | 1.83 | -0.0844 | 2.04 | 0.111 | 0.0139 | -0.0771 | -0.00801
ACACAGT | -0.00779 | 0.04 | -0.446 | -0.719 | -0.00419 | -0.611 | 0.0692 | 0.0921 | -0.0719 | -0.137
TTGATTC | -0.0107 | -0.0557 | 0.131 | -0.124 | -0.168 | -0.79 | 0.00911 | 0.0114 | -0.0167 | -0.0594
TAACCTT | -0.201 | -0.156 | -3.69 | -3.31 | -0.0691 | -1.84 | -1.35 | -2.16 | -0.0915 | -3.43
TCCGTGT | 0.0737 | 0.0112 | 0.112 | -0.181 | -0.0417 | -0.264 | 0.0586 | 0.0246 | 0.122 | 0.00797
TAATGTC | 0.00535 | -0.177 | -4.07 | -3.35 | -0.0467 | -3.42 | -0.503 | -3.45 | -0.222 | -3.54
CCCGATT | 0.211 | -0.142 | -0.0717 | -1.99 | 0.188 | -0.39 | -1.53 | -0.145 | 0.0329 | -0.144
TAGATGG | 0.152 | -0.0391 | -0.0162 | 0.38 | 0.0836 | -0.0359 | 0.0267 | -0.0147 | -0.0537 | -0.0135
CGACCTC | -0.0222 | -0.0389 | 0.0985 | 0.555 | -0.0513 | 0.997 | 0.0814 | -0.012 | -0.0809 | 0.0568
ATAGAGG | 0.0883 | 0.0811 | 0.213 | 0.737 | 0.177 | 0.0446 | 0.183 | 0.111 | 0.00909 | 0.0576
CTAAGAA | 0.167 | 0.206 | -0.0806 | -0.954 | 0.101 | -0.72 | 0.156 | 0.126 | 0.00153 | 0.0351
AGCTGTC | -0.0111 | -0.0119 | 0.268 | 1.22 | -0.0623 | 1.18 | 0.2 | -0.0181 | -0.0587 | 0.0262
TTGTTAC | -2.91 | -0.221 | -0.465 | -2.01 | 0.00789 | -0.381 | -2.74 | -0.139 | -0.00965 | -0.337
CGGGGGT | -0.0771 | -0.0891 | 0.363 | 1.19 | 0.0523 | 1.83 | 0.282 | -0.0435 | -0.0565 | -0.0775
